Publication PMC12796746
Results are given in words; binding and its absence hold for the method and conditions named.

By UniProt entry, the sequences of proteins in these tests, tags left out.
UniProt O75822: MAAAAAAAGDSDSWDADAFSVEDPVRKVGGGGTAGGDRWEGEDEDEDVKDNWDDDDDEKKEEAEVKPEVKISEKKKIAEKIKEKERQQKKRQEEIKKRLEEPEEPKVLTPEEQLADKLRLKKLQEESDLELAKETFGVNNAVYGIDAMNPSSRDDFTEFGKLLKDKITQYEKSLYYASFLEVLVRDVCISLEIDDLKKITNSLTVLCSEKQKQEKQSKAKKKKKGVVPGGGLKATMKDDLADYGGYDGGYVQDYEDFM
UniProt Q9BUT1: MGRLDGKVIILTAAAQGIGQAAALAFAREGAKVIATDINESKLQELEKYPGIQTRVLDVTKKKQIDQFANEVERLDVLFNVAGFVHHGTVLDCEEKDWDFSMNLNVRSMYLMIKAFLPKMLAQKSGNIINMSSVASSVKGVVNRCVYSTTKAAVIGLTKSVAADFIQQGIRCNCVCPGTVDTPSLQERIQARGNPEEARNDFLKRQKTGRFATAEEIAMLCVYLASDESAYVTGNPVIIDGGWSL

Legend:
Assay in all cases: peptide or protein array; HuProt Human Proteome Microarray v2.0, full-length human proteins spotted in duplicate; V5-tagged TRPV4 protein in solution at 1 μM, 1 h at 4 °C, 150 mM NaCl, 2.7 mM KCl, 25 mM Trizma base, 0.05% Tween-20, pH 7.4; detected with Alexa Fluor 647 anti-V5; hit: z-score >= 2 (N terminus: both of 2 slides; ARD constructs: at least 2 of 3 slides); both purified
[1] = target: T1, Rho guanine nucleotide exchange factor 10 (on the HuProt array) (human) (UniProt O15013)
T1 sequence: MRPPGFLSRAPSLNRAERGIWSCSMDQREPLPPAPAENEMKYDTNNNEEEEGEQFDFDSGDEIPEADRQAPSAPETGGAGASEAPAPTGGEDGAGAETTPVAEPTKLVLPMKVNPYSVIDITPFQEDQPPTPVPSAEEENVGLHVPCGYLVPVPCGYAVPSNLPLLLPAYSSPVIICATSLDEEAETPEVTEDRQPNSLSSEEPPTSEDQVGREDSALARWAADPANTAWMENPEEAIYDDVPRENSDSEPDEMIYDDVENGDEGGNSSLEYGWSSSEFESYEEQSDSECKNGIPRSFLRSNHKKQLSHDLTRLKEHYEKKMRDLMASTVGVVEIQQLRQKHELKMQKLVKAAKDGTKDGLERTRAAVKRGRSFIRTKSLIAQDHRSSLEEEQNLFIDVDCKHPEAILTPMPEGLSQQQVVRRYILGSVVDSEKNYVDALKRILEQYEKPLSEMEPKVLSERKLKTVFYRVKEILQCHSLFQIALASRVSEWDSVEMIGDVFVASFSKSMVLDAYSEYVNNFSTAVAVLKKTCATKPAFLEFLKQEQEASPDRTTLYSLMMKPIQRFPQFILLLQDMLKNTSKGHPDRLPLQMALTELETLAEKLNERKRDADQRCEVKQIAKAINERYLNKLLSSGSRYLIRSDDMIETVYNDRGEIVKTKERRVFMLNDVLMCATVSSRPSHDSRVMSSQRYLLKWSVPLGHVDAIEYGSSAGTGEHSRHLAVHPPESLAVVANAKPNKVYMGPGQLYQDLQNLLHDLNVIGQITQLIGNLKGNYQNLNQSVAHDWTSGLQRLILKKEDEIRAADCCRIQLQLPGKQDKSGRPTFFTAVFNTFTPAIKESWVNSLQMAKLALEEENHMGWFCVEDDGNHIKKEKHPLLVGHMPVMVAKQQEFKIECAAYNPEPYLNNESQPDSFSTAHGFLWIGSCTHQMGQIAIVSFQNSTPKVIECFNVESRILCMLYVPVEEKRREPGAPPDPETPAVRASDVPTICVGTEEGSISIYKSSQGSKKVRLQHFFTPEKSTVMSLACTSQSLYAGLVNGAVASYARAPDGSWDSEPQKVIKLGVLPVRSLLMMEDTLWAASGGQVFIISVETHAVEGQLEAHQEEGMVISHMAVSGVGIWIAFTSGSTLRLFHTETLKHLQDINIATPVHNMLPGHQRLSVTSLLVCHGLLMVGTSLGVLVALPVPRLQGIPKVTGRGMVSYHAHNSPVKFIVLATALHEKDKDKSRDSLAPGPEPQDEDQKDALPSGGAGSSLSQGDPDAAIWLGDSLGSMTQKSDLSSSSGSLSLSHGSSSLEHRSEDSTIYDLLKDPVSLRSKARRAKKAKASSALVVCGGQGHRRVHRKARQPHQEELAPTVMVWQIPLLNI

[2] = target: Eukaryotic translation initiation factor 3 subunit J (human) (UniProt O75822)
[3] = target: T2, SH3 domain-containing protein 19 (human) (UniProt Q5HYK7)
T2 sequence: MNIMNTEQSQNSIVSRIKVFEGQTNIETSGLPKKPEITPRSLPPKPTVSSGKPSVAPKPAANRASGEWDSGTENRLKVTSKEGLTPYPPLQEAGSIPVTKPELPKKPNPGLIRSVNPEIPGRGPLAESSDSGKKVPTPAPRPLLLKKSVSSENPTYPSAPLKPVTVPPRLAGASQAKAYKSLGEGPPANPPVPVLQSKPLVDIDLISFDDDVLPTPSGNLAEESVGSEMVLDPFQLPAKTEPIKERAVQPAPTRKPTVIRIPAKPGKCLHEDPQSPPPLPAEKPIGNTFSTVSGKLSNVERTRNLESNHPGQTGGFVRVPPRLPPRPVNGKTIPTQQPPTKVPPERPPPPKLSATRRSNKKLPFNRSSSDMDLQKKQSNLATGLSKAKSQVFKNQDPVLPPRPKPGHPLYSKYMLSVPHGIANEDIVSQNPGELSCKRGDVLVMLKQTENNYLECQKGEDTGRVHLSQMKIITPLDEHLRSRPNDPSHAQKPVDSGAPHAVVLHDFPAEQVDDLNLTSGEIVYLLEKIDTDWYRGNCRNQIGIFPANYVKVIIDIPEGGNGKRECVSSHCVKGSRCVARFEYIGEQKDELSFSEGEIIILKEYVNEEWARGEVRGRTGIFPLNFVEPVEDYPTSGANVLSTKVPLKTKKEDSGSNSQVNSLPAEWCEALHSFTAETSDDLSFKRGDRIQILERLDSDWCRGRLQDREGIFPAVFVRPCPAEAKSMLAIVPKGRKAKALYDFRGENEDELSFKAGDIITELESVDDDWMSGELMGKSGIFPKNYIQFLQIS

[4] = target: 3-hydroxybutyrate dehydrogenase type 2 (human) (UniProt Q9BUT1)

Measured: binding

TRPV4^R269C-ARD (from UniProt Q9HBA0 149-397) (domain or fragment)
no binding (tested: 1 μM): all assays above

TRPV4^R315W-ARD (from UniProt Q9HBA0 149-397) (domain or fragment)
no binding (tested: 1 μM): all assays above
